According to PubChem BioAssay AID360 (National Center for Advancing Translational Sciences (NCATS), 2006):
Hit rate of the full screen: of about 48,000 compounds, about 550 (1.1%) were called active. Not shown: some 4% with an inconclusive outcome. Cut-off read from the data, not from the text of the source: active = potency below about 15 µM; inconclusive = mostly about 16 µM to 33 µM; inactive = weaker than that. Some of the results follow.

Target: Lysosomal acid glucosylceramidase (Homo sapiens) (UniProt P04062)
Assay: Glucocerebrosidase;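 note: the screen sought inhibitors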
Conditions: purified enzyme, resorufin glucoside fluorescence (screen aimed at inhibitors), 20 min
Procedure, shortened: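 Compounds titrated against 0.2 nM normal enzyme, 30 uM resorufin beta-D-glucopyranoside substrate, citrate/phosphate buffer with taurocholate and tween-20, pH 5.9. Reaction ran 20 min at room temperature; fluorescence (Ex 548/Em 600) gave AC50.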
Potency is the fitted concentration of half-maximal effect.

Chain of UniProt P04062 (P04062 whole entry, looked up): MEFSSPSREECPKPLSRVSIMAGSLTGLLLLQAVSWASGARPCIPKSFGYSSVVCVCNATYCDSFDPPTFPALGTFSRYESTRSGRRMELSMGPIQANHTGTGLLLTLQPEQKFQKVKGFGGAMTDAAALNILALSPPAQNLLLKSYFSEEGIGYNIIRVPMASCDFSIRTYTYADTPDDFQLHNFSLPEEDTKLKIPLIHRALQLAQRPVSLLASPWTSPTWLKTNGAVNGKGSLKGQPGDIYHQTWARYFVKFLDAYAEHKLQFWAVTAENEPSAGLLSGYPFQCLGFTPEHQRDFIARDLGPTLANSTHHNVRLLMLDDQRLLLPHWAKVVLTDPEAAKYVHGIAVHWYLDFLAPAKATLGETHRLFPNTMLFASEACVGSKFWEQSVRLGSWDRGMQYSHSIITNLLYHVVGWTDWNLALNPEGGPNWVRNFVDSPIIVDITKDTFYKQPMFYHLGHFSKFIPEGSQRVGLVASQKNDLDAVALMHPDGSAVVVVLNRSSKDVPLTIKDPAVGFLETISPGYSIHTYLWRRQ

Row | Structure (SMILES) | Potency
1 | CCC(=O)Nc1ccc2c(c1)ncn2-c1ccccc1OC | inactive: > 76.9 µM
2 | COc1ccc(S(=O)(=O)N2CCN(S(=O)(=O)c3ccc4c(c3)OCCO4)CC2)cc1 | inactive: > 76.9 µM
3 | O=C1CC(N2CCN(c3ccc(Cl)c(Cl)c3)CC2)C(=O)N1 (centres undefined) | inactive: > 76.9 µM
4 | Cc1cc(C(=O)OCC(=O)Nc2ccc(F)cc2F)c(C)o1 | inactive: > 76.9 µM
5 | CCOc1ccc(C(=O)OCc2nnc(-c3cccs3)o2)cc1OC | inactive: > 76.9 µM
6 | O=C(CCNC(=O)Cn1ccc2ccccc2c1=O)NCCCN1CCN(c2ccccc2F)CC1 | inactive: > 76.9 µM
7 | C=CCSC1=C(C#N)C(c2ccccc2OCC)C(C#N)C(=O)N1 (centres undefined) | inactive: > 76.9 µM
8 | Cc1cccn2c(=O)c3cc(C(=O)NCc4ccco4)c(=N)n(CCc4ccccc4)c3nc12 | inactive
9 | O=C1c2cccnc2C(=O)N1Cc1ccc2c(c1)OCO2 | inactive: > 76.9 µM
10 | COc1cc(C(=O)OC(C)CN2CCCC2)cc(OC)c1OC (centres undefined) | inactive: > 76.9 µM
11 | O=C(c1ccccc1)c1cccn1CC(=O)N1CCCCCC1 | inactive: > 76.9 µM
12 | CCC(CC)C(=O)Nc1c2cnn(-c3ccccc3)c2nc(=O)n1-c1ccccc1 | inactive: > 76.9 µM
13 | COc1ccc(C(=O)c2ccc(OC)cc2O)c(O)c1 | inactive: > 76.9 µM
14 | COc1ccc(S(=O)(=O)N(C)CC(=O)N2CCOCC2)cc1 | inactive: > 76.9 µM
15 | CCCn1c(=O)c(C(=O)Nc2ccccc2C(=O)OC)c(O)c2ccccc21 | active: 14.5 µM
16 | NC(=O)C1CCN(C(=O)CCCCCn2c(=O)[nH]c3ccsc3c2=O)CC1 | inactive: > 76.9 µM
17 | O=C(NCc1ccccc1)c1ccc(COCC(F)(F)F)o1 | inactive: > 76.9 µM
18 | CC(C)Nc1nc(NC(C)C)nc(Oc2ccc(/C=N/O)cc2)n1 | inactive: > 76.9 µM
19 | O=C(NCN1CCN(c2ccccn2)CC1)c1cnccn1 | inactive: > 76.9 µM
20 | COc1ccc2c(c1)c(=O)oc1cc(OCC(=O)N3CCC(C)CC3)ccc12 | inactive: > 76.9 µM

Row | Structure (SMILES) | Potency
21 | O=C(CN1CCN(c2ccccc2)CC1)Nc1c(C(=O)C2CC2)oc2ccccc12 | inactive: > 76.9 µM
22 | O=C(NCc1cccc(F)c1)C1CCN(S(=O)(=O)Cc2ccccc2)CC1 | inactive: > 76.9 µM
23 | O=C(C1=C(O)C(=O)N(CCN2CCOCC2)C1c1ccccn1)c1cccs1 (centres undefined) | inactive: > 76.9 µM
24 | O=C(Nc1cccnc1N1CCOCC1)c1ccco1 | inactive: > 76.9 µM
25 | CCOC(=O)c1cccc(NC(=O)CSc2nc3ccccc3c(=O)n2CCOC)c1 | inactive: > 76.9 µM
26 | CC(=O)Nc1ccc(N=Cc2nc(-c3ccc(C)cc3)oc2O)cc1 | inactive: > 76.9 µM
27 | Cc1cc(C(=O)Nc2cnn(Cc3ccc(Cl)cc3Cl)c2)no1 | inactive
28 | CCCn1c(SCC(=O)N2CCc3ccccc32)nnc1-c1ccncc1 | inactive: > 76.9 µM
29 | COc1ccc(C(=O)N2CC(=O)N(CCc3ccccc3)C(=O)C2)cc1OC | inactive: > 76.9 µM
30 | Cc1ccc(C)n1-c1cccc(C(=O)O)c1 | inactive: > 76.9 µM
31 | c1ccc(-c2nc3nonc3nc2-c2ccccc2)cc1 | inactive
32 | Cc1ccc(-c2nn(-c3ccccc3)c3[nH]c(=O)c(CNCCN(C)C)cc23)cc1 | inactive: > 76.9 µM
33 | Cn1nc(C(=O)NCc2ccc(F)cc2)c2ccccc2c1=O | inactive: > 76.9 µM
34 | O=C(Nc1ccc2oc(-c3ccccc3)nc2c1)c1cccnc1 | inactive: > 76.9 µM
35 | COc1cc(NC(=O)CN2C(=O)NC(C)(CC(C)C)C2=O)cc(OC)c1 (centres undefined) | inactive: > 76.9 µM
36 | COc1cc2c(cc1OC)/C(=C/C(=O)N1CCOCC1)NC(C)(C)C2 | inactive: > 76.9 µM
37 | Cc1nc2nc(SCC(=O)N3CCOCC3)nn2c(C)c1Cc1ccccc1 | inactive: > 76.9 µM
38 | CN1C(=O)NC(c2ccc(O)cc2)C(C(=O)c2cccs2)C1(O)C(F)(F)F (centres undefined) | active: 15 µM
39 | Cn1cccc1-c1nc2ccc(NC(=O)c3cccs3)cc2[nH]1 | inactive
40 | CCCC(=O)C1=C(c2ccccc2)C(C#N)(C#N)C(C#N)=C1N | inactive

Row | Structure (SMILES) | Potency
41 | CCc1cc(=O)oc2cc(OCC(=O)N3CCc4ccccc43)ccc12 | inactive: > 76.9 µM
42 | O=C1c2ccccc2C(O)(Cc2ccccc2)N1Cc1ccco1 (centres undefined) | inactive: > 76.9 µM
43 | Cc1cc(NS(=O)(=O)c2ccc(NC(=O)Nc3cccc(Cl)c3)cc2)no1 | inactive: > 76.9 µM
44 | CN(C)C(=O)CSc1nnc(CCNC(=O)OC(C)(C)C)o1 | inactive: > 76.9 µM
45 | CC1CN(c2ccccc2)C(=O)CS1 (centres undefined) | inactive: > 76.9 µM
46 | COc1ccccc1CN(CC(=O)NCc1ccco1)C(=O)CNS(=O)(=O)c1ccc(C)cc1 | inactive: > 76.9 µM
47 | Cc1ccc2c3c(c(SCC(=O)Nc4nonc4C)nc2c1)CCCC3 | inactive: > 76.9 µM
48 | CSc1nnc(-c2nnc(SC)n2-c2ccccc2)n1-c1ccccc1 | inactive: > 76.9 µM
49 | Fc1ccc(Cn2nnnc2CN2CCN(C3CCCC3)CC2)cc1 | inactive: > 76.9 µM
50 | CCCCS(=O)(=O)Nc1ccc2ncn(C)c(=O)c2c1 | inactive: > 76.9 µM
51 | N#Cc1nc(-c2ccc(Cl)cc2)oc1NCc1ccco1 | inactive: > 76.9 µM
52 | Cc1ccc(S(=O)(=O)Nc2cccc3ncccc23)s1 | inactive: > 76.9 µM
53 | CCOc1ccccc1-n1c(SCC(N)=O)nnc1-c1ccco1 | inactive: > 76.9 µM
54 | CC(=O)c1cccc(NS(=O)(=O)N2CCCCC2)c1 | inactive: > 76.9 µM
55 | COc1ccc(-c2nc(C#N)c(NC(C)C)o2)cc1 | inactive: > 76.9 µM
56 | O=C(O)c1ccc(S(=O)(=O)Cc2ccccc2)cc1 | inactive: > 76.9 µM
57 | CCCCn1c(=O)n(C)c(=O)c2c(C(F)(F)F)cc(-c3ccncc3)nc21 | inactive: > 76.9 µM
58 | CCCn1c(SCC(=O)N2CCc3ccccc32)nnc1-c1ccco1 | inactive: > 76.9 µM
59 | CCc1cc2c(=O)c(-c3ccc4c(c3)OCCO4)coc2cc1OC(=O)c1ccco1 | inactive: > 76.9 µM
